Test results from the supplement of paper PMC4967469.
Lines with a small IC50 respond at low doses; fits outside the tested doses are given as limits. AUC sums up the same curve from the lowest dose to the 256-fold higher top dose; it is 1 without any effect and falls as sensitivity rises. For some assays here: An inferred top dose comes from the curve model; the source does not state it.

How the values were obtained:
Experiment in all cases: Viability of human cancer cell lines after 72 h of drug (GDSC screen)
PIK-93 = compound: CC(=O)Nc1nc(C)c(-c2ccc(Cl)c(S(=O)(=O)NCCO)c2)s1 [PIK-93]; conditions: top dose 20 µM
Protocol: (§1)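 Human cancer cell lines in 384-well plates, medium with 10% serum, drug for 72 h over a 256-fold dose range (nine 2-fold or five 4-fold steps up to the top dose). Adherent lines were fixed and stained with the nucleic acid dye Syto60, suspension lines read with resazurin; signal relative to control wells, capped at 0 and 100%. One two-parameter sigmoid per drug and line, fitted in a mixed model over all curves with the slope shared within a line.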

ABT-263 = compound: CC1(C)CCC(c2ccc(Cl)cc2)=C(CN2CCN(c3ccc(C(=O)NS(=O)(=O)c4ccc(N[C@H](CCN5CCOCC5)CSc5ccccc5)c(S(=O)(=O)C(F)(F)F)c4)cc3)CC2)C1 [ABT-263]; conditions: top dose 2 µM; top dose inferred
Protocol: as §1

piperlongumine = compound: COc1cc(/C=C/C(=O)N2CCC=CC2=O)cc(OC)c1OC [piperlongumine]; conditions: top dose 10 µM
Protocol: as §1

GW 441756 = compound: Cn1cc(/C=C2\C(=O)Nc3cccnc32)c2ccccc21 [GW 441756]; conditions: top dose 2 µM; top dose inferred
Protocol: as §1

Cell Line	AUC (PIK-93)	IC50 (PIK-93) [nM]	AUC (ABT-263)	IC50 (ABT-263) [nM]	AUC (piperlongumine)	IC50 (piperlongumine) [nM]	AUC (GW 441756)	IC50 (GW 441756) [nM]
KYSE-520 (oesophagus, adherent)	0.87	> 20000	0.95	> 2000	0.774	5340	0.945	> 2000
C3A (liver, adherent)	0.987	> 20000	0.988	> 2000	0.846	7760	0.987	> 2000
KP-3 (pancreas, adherent)	0.86	> 20000	0.969	> 2000	0.785	5160	0.924	> 2000
SNU-407 (large intestine, adherent)	0.552	1780	0.947	> 2000	0.691	2360	0.906	> 2000
JHH-2 (liver, adherent)	0.857	18200	0.95	> 2000	0.723	2840	0.986	> 2000
H3255 (lung adenocarcinoma, adherent)	0.906	> 20000	0.948	> 2000	0.825	7580	0.982	> 2000
SK-MEL-5 (melanoma, adherent)	0.978	> 20000	0.929	> 2000	0.803	6340	0.943	> 2000
NCI-H1568 (lung adenocarcinoma, adherent)	0.915	> 20000	0.97	> 2000	0.796	6020	0.971	> 2000
EW-7 (Ewing sarcoma, semi-adherent)	0.271	308	0.682	375	0.809	4450	0.99	> 2000
TGBC11TKB (stomach, adherent)	0.846	12100	0.902	> 2000	0.855	6540	0.986	> 2000
PCI-6A (head and neck, adherent)	0.743	6090	0.886	> 2000	0.977	> 10000	0.98	> 2000
SW620 (large intestine, adherent)	0.937	> 20000	0.896	1960	0.708	2220	0.96	> 2000
NCI-H2087 (lung adenocarcinoma, semi-adherent)	0.944	> 20000	0.914	> 2000	0.842	7810	0.983	> 2000
G-361 (melanoma, adherent)	0.741	5890	0.988	> 2000	0.804	4740	0.895	> 2000
LN-18 (glioma, adherent)	0.969	> 20000	0.951	> 2000	0.879	6960	0.949	> 2000
MG-63 (osteosarcoma, adherent)	0.98	> 20000	0.984	> 2000	0.707	2660	0.972	> 2000
NCI-H596 (lung adenocarcinoma, adherent)	0.642	3470	0.88	> 2000	0.754	4270	0.97	> 2000
HSC-2 (head and neck, adherent)	0.866	15500	0.943	> 2000	0.742	2890	0.989	> 2000
JHH-1 (liver, adherent)	0.815	12200	0.965	> 2000	0.839	7680	0.961	> 2000
RCC-ER (kidney, adherent)	0.986	> 20000	0.894	> 2000	0.826	7070	0.901	> 2000
NCI-H841 (small cell lung carcinoma, adherent)	0.85	15300	0.957	> 2000	0.863	8700	0.96	> 2000

Cell Line	AUC (PIK-93)	IC50 (PIK-93) [nM]	AUC (ABT-263)	IC50 (ABT-263) [nM]	AUC (piperlongumine)	IC50 (piperlongumine) [nM]	AUC (GW 441756)	IC50 (GW 441756) [nM]
ME-180 (cervix, adherent)	0.747	6650	0.947	> 2000	0.679	2030	0.939	> 2000
HT55 (large intestine, adherent)	0.97	> 20000	0.988	> 2000	0.874	9610	0.978	> 2000
LU-135 (small cell lung carcinoma, suspension)	0.739	5200	0.442	89.5	0.813	4280	0.982	> 2000
SNU-182 (liver, adherent)	0.824	12600	0.813	1140	0.75	3410	0.846	1560
Detroit562 (head and neck, adherent)	0.936	> 20000	0.988	> 2000	0.797	4510	0.981	> 2000
NCI-H2023 (lung adenocarcinoma, adherent)	0.93	> 20000	0.912	> 2000	0.805	6610	0.967	> 2000
TT (thyroid, adherent)	0.97	> 20000	0.871	> 2000	0.88	> 10000	0.801	1450
MEL-JUSO (melanoma, adherent)	0.715	5480	0.977	> 2000	0.75	3610	0.944	> 2000
NY (osteosarcoma, adherent)	0.976	> 20000	0.915	> 2000	0.852	7560	0.986	> 2000
HCC-15 (lung squamous cell carcinoma, adherent)	0.934	> 20000	0.63	316	0.868	> 10000	0.938	> 2000
PA-TU-8902 (pancreas, adherent)	0.662	3830	0.979	> 2000	0.72	2950	0.984	> 2000
M059J (glioma, adherent)	0.795	10200	0.927	> 2000	0.759	3770	0.985	> 2000
A431 (skin, adherent)	0.757	6610	0.954	> 2000	0.778	3870	0.987	> 2000
MFE-280 (endometrium, adherent)	0.751	8220	0.886	> 2000	0.698	2640	0.977	> 2000
HCC1954 (breast, adherent)	0.888	> 20000	0.961	> 2000	0.741	3490	0.965	> 2000
PC-3 [JPC-3] (lung adenocarcinoma, adherent)	0.873	> 20000	0.919	> 2000	0.773	5200	0.965	> 2000
SU8686 (pancreas, adherent)	0.965	> 20000	0.981	> 2000	0.848	8840	0.958	> 2000
HCC-44 (lung adenocarcinoma, adherent)	0.789	8610	0.981	> 2000	0.73	2770	0.978	> 2000
H2461 (mesothelioma, adherent)	0.952	> 20000	0.978	> 2000	0.728	3340	0.938	> 2000
NCI-H2444 (non-small cell lung carcinoma, adherent)	0.95	> 20000	0.924	> 2000	0.896	> 10000	0.971	> 2000
CAL-39 (cervix, adherent)	0.87	19800	0.975	> 2000	0.806	5310	0.98	> 2000

Cell Line	AUC (PIK-93)	IC50 (PIK-93) [nM]	AUC (ABT-263)	IC50 (ABT-263) [nM]	AUC (piperlongumine)	IC50 (piperlongumine) [nM]	AUC (GW 441756)	IC50 (GW 441756) [nM]
HuP-T4 (pancreas, adherent)	0.541	1630	0.963	> 2000	0.724	2840	0.976	> 2000
BICR22 (head and neck, adherent)	0.969	> 20000	0.772	893	0.797	5520	0.939	> 2000
CS1 (bone, adherent)	0.68	4250	0.792	1030	0.7	2460	0.938	> 2000
DK-MG (glioma, adherent)	0.818	19300	0.966	> 2000	0.776	6190	0.973	> 2000
KYSE-510 (oesophagus, adherent)	0.895	17100	0.988	> 2000	0.839	5240	0.964	> 2000
RPMI-7951 (melanoma, adherent)	0.808	9930	0.879	1940	0.631	1420	0.948	> 2000
OV-56 (ovary, adherent)	0.872	17700	0.976	> 2000	0.797	4490	0.967	> 2000
22RV1 (prostate, adherent)	0.504	1280	0.976	> 2000	0.782	5260	0.894	> 2000
Capan-2 (pancreas, adherent)	0.963	> 20000	0.959	> 2000	0.878	> 10000	0.985	> 2000
CAPAN-1 (pancreas, adherent)	0.941	> 20000	0.871	> 2000	0.951	> 10000	0.86	1980
SNG-M (endometrium, adherent)	0.817	10900	0.936	> 2000	0.57	967	0.934	> 2000
SW780 (bladder, adherent)	0.985	> 20000	0.911	> 2000	0.667	1910	0.98	> 2000
SBC-3 (small cell lung carcinoma, adherent)	0.697	4210	0.989	> 2000	0.698	2120	0.974	> 2000
SW1271 (small cell lung carcinoma, adherent)	0.737	6690	0.984	> 2000	0.765	4200	0.949	> 2000
UACC-893 (breast, adherent)	0.791	12500	0.955	> 2000	0.703	2870	0.946	> 2000
RH-41 (rhabdomyosarcoma, adherent)	0.935	> 20000	0.726	480	0.661	1610	0.991	> 2000
OVCA420 (ovary, adherent)	0.926	> 20000	0.982	> 2000	0.834	9860	0.981	> 2000
P12-ICHIKAWA (T-cell lymphoblastic leukaemia, suspension)	0.485	1150	0.371	60.1	0.85	5100	0.994	> 2000
OVISE (ovary, adherent)	0.711	6080	0.278	23.5	0.753	4360	0.98	> 2000
